{"source": "the supplement of paper PMC8748497", "note": "The other results are listed elsewhere or left out.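 Rule for the calls: active = fold change of at least 2 over DMSO control; inactive = below 2-fold.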 Most values come without repeats; read them as rough."}
{"test_system": "HEK293 ARE/NRF2-luciferase reporter", "assay": "ARE/NRF2 luciferase reporter activity, fold change over DMSO control; higher = stronger NRF2/ARE reporter activation", "conditions": "10 µM; 24 h"}
{"compound": "CCN(CC)CCNC(=O)c1cc(Cl)c(N)cc1OC", "ARE/NRF2 luciferase reporter activity": "inactive: 0.953"}
{"compound": "O=C1C(=O)c2ccccc2C(O)=C1C1CCC(c2ccc(Cl)cc2)CC1", "note": "(centres undefined)", "ARE/NRF2 luciferase reporter activity": "inactive: 1.29"}
{"compound": "CC1(C)CC2C1CCC1(C)OC1CCC2(C)O", "note": "(centres undefined)", "ARE/NRF2 luciferase reporter activity": "inactive: 0.932"}
{"compound": "CC(C)[N+](C)(CCOC(=O)C1c2ccccc2Oc2ccccc21)C(C)C", "ARE/NRF2 luciferase reporter activity": "inactive: 0.905"}
{"compound": "O=C(/C=C/C(=O)Oc1ccccc1C(=O)O)Oc1ccccc1C(=O)O", "ARE/NRF2 luciferase reporter activity": "inactive: 1.05"}
{"compound": "CC1(O)CCOC(=O)C1", "note": "(centres undefined)", "ARE/NRF2 luciferase reporter activity": "inactive: 0.984"}
{"compound": "CCCCN(CCCC)CCCOC(=O)c1ccc(N)cc1", "ARE/NRF2 luciferase reporter activity": "inactive: 0.977"}
{"compound": "C[C@H](CCC(=O)O)[C@H]1CC[C@H]2[C@@H]3CC[C@@H]4C[C@H](O)CC[C@]4(C)[C@H]3C[C@H](O)[C@]12C", "ARE/NRF2 luciferase reporter activity": "inactive: 0.903"}
{"compound": "Cn1c(=O)c2[nH]c(Br)nc2n(C)c1=O", "ARE/NRF2 luciferase reporter activity": "inactive: 0.916"}
{"compound": "Cc1onc(-c2c(Cl)cccc2Cl)c1C(=O)N[C@@H]1C(=O)N2[C@@H]1SC(C)(C)[C@@H]2C(=O)O", "ARE/NRF2 luciferase reporter activity": "inactive: 0.828"}
{"compound": "CCCCCc1c2c(cc(O)c1C(=O)O)OC(=O)c1c(cc(OC)cc1C(=O)CCCC)O2", "ARE/NRF2 luciferase reporter activity": "inactive: 1.05"}
{"compound": "O=C(O)c1cc(-c2ccc(F)cc2F)ccc1O", "ARE/NRF2 luciferase reporter activity": "inactive: 0.768"}
{"compound": "CCCCNc1ccc(C(=O)OCCN(C)C)cc1", "ARE/NRF2 luciferase reporter activity": "inactive: 1.62"}
{"compound": "COc1ccc(CN(CCN(C)C)c2ccccn2)cc1", "ARE/NRF2 luciferase reporter activity": "inactive: 0.803"}
{"compound": "CC(C)CC(NC(=O)CN)C(=O)NC(Cc1ccccc1)C(=O)O", "note": "(centres undefined)", "ARE/NRF2 luciferase reporter activity": "inactive: 0.904"}
{"compound": "NCCc1c[nH]cn1", "ARE/NRF2 luciferase reporter activity": "inactive: 0.979"}
{"compound": "CC1CC(OC(=O)c2ccccc2O)CC(C)(C)C1", "note": "(centres undefined)", "ARE/NRF2 luciferase reporter activity": "inactive: 1.04"}
{"compound": "C[N+](C)(C)CC(=O)O", "ARE/NRF2 luciferase reporter activity": "inactive: 1.04"}
{"compound": "CCCCC(CC)COc1ccc(-c2nc(-c3ccc(OC)cc3)nc(-c3ccc(OCC(CC)CCCC)cc3O)n2)c(O)c1", "note": "(centres undefined)", "ARE/NRF2 luciferase reporter activity": "inactive: 1.03"}
{"compound": "O=C1c2c(O)cccc2C([C@@H]2O[C@H](CO)[C@@H](O)[C@H](O)[C@H]2O)c2cc(CO)cc(O)c21", "note": "(some centres undefined)", "ARE/NRF2 luciferase reporter activity": "inactive: 0.783"}
{"compound": "COc1cc(/C=C/C(=O)O)cc(OC)c1OC", "ARE/NRF2 luciferase reporter activity": "inactive: 0.868"}
{"compound": "CCCCCC1C(=O)CCC1CC(=O)OC", "note": "(centres undefined)", "ARE/NRF2 luciferase reporter activity": "inactive: 1.03"}
{"compound": "COc1cc(N)cn[n+]1-c1ccccc1", "ARE/NRF2 luciferase reporter activity": "inactive: 0.894"}
{"compound": "Oc1cc(O)c2c(c1)O[C@H](c1ccc(O)c(O)c1)[C@@H](O)C2", "note": "[CIANIDANOL [+-catechin]]", "ARE/NRF2 luciferase reporter activity": "inactive: 1.24"}
{"compound": "CN1C(C)(C)CCCC1(C)C", "ARE/NRF2 luciferase reporter activity": "inactive: 0.785"}
{"compound": "C#CCN(C)Cc1ccccc1", "ARE/NRF2 luciferase reporter activity": "inactive: 0.903"}
{"compound": "C/C(=C\\C(=O)OCCCCCCCCC(=O)O)C[C@@H]1OC[C@H](C[C@@H]2O[C@H]2[C@@H](C)[C@H](C)O)[C@@H](O)[C@H]1O", "ARE/NRF2 luciferase reporter activity": "inactive: 0.952"}
{"compound": "Cc1ccc(S(=O)(=O)NCl)cc1", "ARE/NRF2 luciferase reporter activity": "inactive: 0.922"}
{"compound": "CC(=O)OCC(=O)[C@@]1(O)CC[C@H]2[C@@H]3CC[C@@H]4C[C@H](O)CC[C@]4(C)[C@H]3C(=O)C[C@@]21C", "ARE/NRF2 luciferase reporter activity": "inactive: 0.9"}
{"compound": "C=CC(C1=CC(=O)C(OC)=CC1=O)c1ccc(O)cc1", "note": "(centres undefined)", "ARE/NRF2 luciferase reporter activity": "active: 27.9"}
{"compound": "C=C(NC(=O)C(=C)NC(=O)c1csc(C2=N[C@@H]3c4csc(n4)[C@H]4NC(=O)c5csc(n5)[C@H]([C@](C)(O)[C@@H](C)O)NC(=O)[C@H]5CSC(=N5)/C(=C/C)NC(=O)[C@H]([C@@H](C)O)NC(=O)c5csc(n5)[C@]3(CC2)NC(=O)[C@H](C)NC(=O)C(=C)NC(=O)[C@H](C)NC(=O)[C@H]([C@@H](C)CC)N[C@@H]2C=Cc3c([C@H](C)O)cc(nc3[C@H]2O)C(=O)O[C@@H]4C)n1)C(N)=O", "ARE/NRF2 luciferase reporter activity": "active: 9.1"}
{"compound": "C/C=C/c1ccc(OC)cc1", "ARE/NRF2 luciferase reporter activity": "inactive: 0.956"}
{"compound": "NS(=O)(=O)c1cc2c(cc1C(F)(F)F)NC(Cc1ccccc1)NS2(=O)=O", "note": "(centres undefined)", "ARE/NRF2 luciferase reporter activity": "inactive: 0.852"}
{"compound": "C[C@H]1O[C@@H](O[C@H]2[C@@H](O)C[C@H](O[C@H]3[C@@H](O)C[C@H](O[C@H]4CC[C@@]5(C)[C@H](CC[C@@H]6[C@@H]5C[C@@H](O)[C@]5(C)[C@@H](C7=CC(=O)OC7)CC[C@]65O)C4)O[C@@H]3C)O[C@@H]2C)C[C@H](O)[C@@H]1O", "ARE/NRF2 luciferase reporter activity": "inactive: 0.00938"}
{"compound": "COC(=O)C[C@H]1C(C)(C)C(=O)[C@@H]2CC3C4=CC(=O)O[C@@H](c5ccoc5)[C@]4(C)CC[C@@H]3[C@@]1(C)C2=O", "note": "(some centres undefined)", "ARE/NRF2 luciferase reporter activity": "inactive: 0.936"}
{"compound": "Clc1ccccc1CN1CCc2sccc2C1", "ARE/NRF2 luciferase reporter activity": "inactive: 0.906"}
{"compound": "CCOC(=O)c1c(C)cc(O)c(C=O)c1O", "ARE/NRF2 luciferase reporter activity": "inactive: 1.75"}
{"compound": "CC(=O)N[C@@H](CCC(=O)O)C(=O)O", "ARE/NRF2 luciferase reporter activity": "inactive: 1.02"}
{"compound": "CCOC(=O)CCC(=O)O[C@H]1[C@H](O[C@@H]2[C@@H](C)[C@H](O[C@H]3C[C@@](C)(OC)[C@@H](O)[C@H](C)O3)[C@@H](C)C(=O)O[C@H](CC)[C@@](C)(O)[C@H](O)[C@@H](C)C(=O)[C@H](C)C[C@@]2(C)O)O[C@H](C)C[C@@H]1N(C)C", "ARE/NRF2 luciferase reporter activity": "inactive: 0.969"}
